Structures are written as SMILES. Some of the results follow.

For the assay, the system named is HSkMC (human skeletal muscle cells). The experiment in a line: cytotoxicity call (relative viability < 0.9). The note with it: 10 µM.
For the compound `COCCNC(=O)C[C@H]1CC[C@@H](NS(=O)(=O)c2ccc(C)cc2)[C@@H](CO)O1`, the cytotoxicity call is “inactive”.

For `C[C@@H]1CN([C@H](C)CO)C(=O)Cc2cc(NC(=O)CCN3CCOCC3)ccc2O[C@@H]1CN(C)Cc1ccncc1`, the cytotoxicity call was “inactive”.

With `COc1ccc([C@H]2C/C=C\C[C@H](c3cccc(Cl)c3)NC(=O)[C@@H](c3ccccc3)CC(=O)N2)c(OC)c1`, the cytotoxicity call was “inactive”.

On to `C[C@H]1CN([C@@H](C)CO)C(=O)c2cc(NC(=O)Nc3ccc4c(c3)OCO4)ccc2O[C@@H]1CN(C)C(=O)Nc1cccc2ccccc12`, for which the cytotoxicity call was “inactive”.

In the case of `C[C@H]1CN([C@@H](C)CO)C(=O)Cc2cc(NC(=O)CCN3CCOCC3)ccc2O[C@H]1CN(C)S(=O)(=O)c1ccc(Cl)cc1`, the cytotoxicity call is “inactive”.

Take `Cc1noc(C)c1NC(=O)Nc1ccc2c(c1)CC(=O)N([C@H](C)CO)C[C@@H](C)[C@@H](CN(C)Cc1ccc(Oc3ccccc3)cc1)O2`: the cytotoxicity call was “inactive”.

As to `Cc1ccc2c(N)[nH]nc2n1`, the cytotoxicity call is “inactive”.

For the compound `Nc1ccc(Cl)nn1`, the cytotoxicity call is “inactive”.

For the compound `CCOC(=O)Cn1cnc2ccccc2c1=O`, the cytotoxicity call is “inactive”.

As for `C[C@H]1CN([C@@H](C)CO)C(=O)Cc2cc(NC(=O)Nc3cccc4ccccc34)ccc2O[C@H]1CN(C)S(=O)(=O)c1ccc(F)cc1`, the cytotoxicity call is “inactive”.

`Cc1cccc(S(=O)(=O)N2C[C@@H](O)COC[C@@H]3O[C@@H](CC(=O)NCCCN4CCOCC4)CC[C@H]32)c1`: the cytotoxicity call was “inactive”.

`C[C@@H]1CN([C@@H](C)CO)C(=O)c2cc(NC(=O)c3ccccc3)ccc2O[C@@H](C)CCCCO[C@@H]1CN(C)CC1CCCCC1`: the cytotoxicity call was “inactive”.

Consider `COc1ccc(S(=O)(=O)Nc2ccc3c(c2)C(=O)N([C@H](C)CO)C[C@@H](C)[C@H](CN(C)S(=O)(=O)c2ccc(Cl)cc2)OCCCC[C@@H](C)O3)cc1`, for which the cytotoxicity call is “inactive”.

On to `C[C@H](CO)N1C[C@H](C)[C@H](CN(C)C(=O)NC2CCCCC2)OCCCC[C@H](C)Oc2ccc(NC(=O)NC3CCCCC3)cc2C1=O`, for which the cytotoxicity call is “inactive”.

Regarding `Cc1noc(C)c1NC(=O)Nc1ccc2c(c1)C(=O)N([C@H](C)CO)C[C@H](C)[C@@H](CN(C)C(=O)Nc1c(C)noc1C)OCCCC[C@@H](C)O2`, the cytotoxicity call is “inactive”.

As to `CN1C(=O)c2cc(NC(=O)c3ccc(C(F)(F)F)cc3)ccc2OC[C@@H]2O[C@@H](CC(=O)NC3Cc4ccccc4C3)CC[C@H]21`, the cytotoxicity call was “active”.

For the compound `Cc1ccc(S(=O)(=O)Nc2ccc3c(c2)C(=O)N([C@H](C)CO)C[C@H](C)[C@@H](CN(C)C(=O)Nc2ccc4c(c2)OCO4)OCCCC[C@H](C)O3)cc1`, the cytotoxicity call was “inactive”.

For the compound `COc1ccc(C(=O)Nc2ccc(CN3C(=O)[C@]4(O[C@H](CC(=O)N(CCO)Cc5ccccc5)[C@@H]([Si](C)(C)c5ccc(OC)cc5)[C@@H]4C)c4ccccc43)cc2)cc1`, the cytotoxicity call was “inactive”.

`Cc1ccc(S(=O)(=O)N(C)C[C@@H]2Oc3ncc(Br)cc3C(=O)N([C@H](C)CO)C[C@@H]2C)cc1`: the cytotoxicity call is “inactive”.

Consider `C[C@H]1CN([C@@H](C)CO)C(=O)c2cccc(NC(=O)C3CCOCC3)c2O[C@H]1CN(C)Cc1ccc(-c2ccccc2)cc1`, for which the cytotoxicity call is “inactive”.

As to `C[C@H](CO)N1C[C@H](C)[C@@H](CN(C)C(=O)Nc2ccc3c(c2)OCO3)Oc2ccc(NC(=O)Nc3ccc(C(F)(F)F)cc3)cc2CC1=O`, the cytotoxicity call was “inactive”.

In the case of `COc1ccc(S(=O)(=O)Nc2ccc3c(c2)C(=O)N([C@@H](C)CO)C[C@@H](C)[C@@H](CN(C)S(=O)(=O)c2ccc(Cl)cc2)OCCCC[C@H](C)O3)cc1`, the cytotoxicity call is “inactive”.

For the compound `C[C@@H]1CCCCO[C@@H](CN(C)S(C)(=O)=O)[C@@H](C)CN([C@H](C)CO)C(=O)c2cc(NS(C)(=O)=O)ccc2O1`, the cytotoxicity call was “inactive”.

Regarding `Nc1cc(N)nc(SCCC(=O)O)n1`, the cytotoxicity call was “inactive”.

On to `COc1ccc(S(=O)(=O)Nc2ccc3c(c2)C(=O)N([C@H](C)CO)C[C@H](C)[C@H](CN(C)Cc2ccc(C(=O)O)cc2)OCCCC[C@@H](C)O3)cc1`, for which the cytotoxicity call is “inactive”.

As to `COCC(=O)N1C[C@@H](C)[C@H](OC)CN(C)C(=O)c2ccc(NC(=O)Nc3ccccc3)cc2OC[C@H]1C`, the cytotoxicity call is “inactive”.

Turning to `CO[C@H]1CN(C)C(=O)c2cc(NC(=O)NC3CCCCC3)ccc2OC[C@H](C)N(CCc2ccccc2)C[C@@H]1C`, the cytotoxicity call is “inactive”.

With `O=C1OC(c2cc(I)c(O)c(I)c2)(c2cc(I)c(O)c(I)c2)c2ccccc21`, the cytotoxicity call was “inactive”.

On to `CO[C@H]1CN(C)C(=O)c2ccc(NC(=O)CC(F)(F)F)cc2OC[C@H](C)N(S(=O)(=O)c2cn(C)cn2)C[C@H]1C`, for which the cytotoxicity call was “inactive”.

As for `COc1ccc2c3c([nH]c2c1)[C@@H](CO)N(C[C@]13CCN(CC1)CC1CCCCC1)C(=O)Nc1c(noc1C)C`, the cytotoxicity call was “inactive”.

Consider `C[C@H]1CN([C@@H](C)CO)C(=O)Cc2cc(NC(=O)Nc3cccc4ccccc34)ccc2O[C@@H]1CN(C)Cc1ccc2c(c1)OCO2`, for which the cytotoxicity call is “inactive”.

On to `COc1ccc(S(=O)(=O)N[C@@H]2CC[C@@H](CC(=O)N3CCC(Cc4ccccc4)CC3)O[C@@H]2CO)cc1`, for which the cytotoxicity call was “inactive”.

For the compound `C[C@H]1CN([C@@H](C)CO)C(=O)c2c(c3ccccc3n2C)-c2ccccc2CO[C@@H]1CN(C)Cc1ccc(Cl)c(Cl)c1`, the cytotoxicity call was “inactive”.

On to `C[C@@H]1CN([C@H](C)CO)C(=O)Cc2cc(NS(=O)(=O)c3ccccc3)ccc2O[C@H]1CN(C)Cc1ccc(-c2ccccc2)cc1`, for which the cytotoxicity call was “active”.

`CC/C=C\C/C=C\C/C=C\C/C=C\C/C=C\C/C=C\CCC(=O)OCC`: the cytotoxicity call is “inactive”.

`C[C@H]1CN([C@@H](C)CO)S(=O)(=O)c2ccc(C#Cc3ccncc3)cc2O[C@H]1CN(C)C(=O)C1CCC1`: the cytotoxicity call was “inactive”.

Consider `Cc1noc(C)c1S(=O)(=O)N(C)C[C@H]1Oc2ccc(NS(=O)(=O)c3cccs3)cc2CC(=O)N([C@@H](C)CO)C[C@H]1C`, for which the cytotoxicity call was “inactive”.

Regarding `CCCCOc1cc(C(=O)NCCN(CC)CC)c2ccccc2n1.Cl`, the cytotoxicity call was “inactive”.

For `CCC(=O)N[C@H]1CC[C@@H](CC(=O)OC)O[C@@H]1CO`, the cytotoxicity call was “inactive”.

On to `C[C@@H]1CN([C@@H](C)CO)C(=O)c2cc(NC(=O)Nc3ccc(F)cc3)ccc2O[C@@H](C)CCCCO[C@@H]1CN(C)Cc1ccc(C(F)(F)F)cc1`, for which the cytotoxicity call was “inactive”.

Values taken from the antibiotic and cytotoxicity screens of Wong et al. (2023).
